{"source": "PubChem BioAssay (NCI)", "note": "“And” between values parts separate entries of the source, which are not always exact repeats. Equal entries are not always repeated.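 Test compounds were applied to cells in 96-well plates for 48 hours at 5 doses. The concentration for 50% growth inhibition is given as GI50. TGI: concentration producing complete growth inhibition.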", "data": [{"system": "NCI-H322M lung", "assay": "DTP human tumour cell line panel, 48 h", "values": [{"smiles": "O=C1c2c(O)ccc(O)c2C(=O)c2c(NCCNC(=O)C(O)C(O)C(O)C(O)CO)ccc(NCCNC(=O)C(O)C(O)C(O)C(O)CO)c21", "note": "(centres undefined)", "TGI": "1.07 µM"}, {"smiles": "Cn1cc(-c2csc(-c3c[nH]c4ccc(F)cc34)n2)c2cccnc21", "GI50": "8.82 µM", "TGI": "> 100 µM"}, {"smiles": "CC(C)(C)OC(=O)NCC(=O)NC1CC=CCC1NC(=O)CNC(=O)OC(C)(C)C", "note": "(centres undefined)", "TGI": "> 100 µM"}, {"smiles": "Cc1cc(C)nc(NS(=O)(=O)c2ccc(NC(=O)c3cccc4c(Nc5ccc(S(=O)(=O)N=C(N)N)cc5)c5ccccc5nc34)cc2)n1", "TGI": "93.6 µM"}, {"smiles": "CN(C)CCNc1c2c(c(NCCN(C)C)c3c(CN(C)C)c[nH]c13)C(=O)c1ccccc1C2=O", "GI50": "2.97 µM", "TGI": "10.3 µM"}, {"smiles": "O=C1CC(=O)c2c(N3CCCC3)sc(N3CCCC3)c21", "TGI": "> 100 µM"}, {"smiles": "CCOC(=O)CCC(C(=O)OCC)n1nc2ccc(Nc3c(C)[n+]([O-])c4ccc(Cl)cc4[n+]3[O-])cc2n1", "note": "(centres undefined)", "TGI": "> 100 µM"}, {"smiles": "CC(=O)c1ccc(Nc2cc(-n3nnc4ccccc43)nc3ccccc23)cc1", "GI50": "16.9 µM", "TGI": "51.1 µM"}, {"smiles": "COc1cccc2c1C(=O)c1c(O)c3c(c(O)c1C2=O)C[C@@](O)(C(=O)CO)C[C@@H]3OC1CC(N(C)C)C(O)C(C)O1", "note": "(some centres undefined)", "TGI": "0.303 µM"}, {"smiles": "FC(F)(F)c1ccc2c(c1)nc(-c1ccccc1)n2CC1CCCN2CCCCC12", "note": "(centres undefined)", "TGI": "59 µM"}, {"smiles": "COc1ccc(NC2C(=O)C3(C)CCC2C3(C)C)cc1", "note": "(centres undefined)", "TGI": "> 100 µM"}, {"smiles": "CC1(C)COC(c2ccccc2-c2ccccc2)=N1", "TGI": "> 100 µM"}, {"smiles": "O=C1NC(=O)/C(=C/c2ccc3ncccc3c2)S1", "GI50": "12.8 µM", "TGI": "> 25 µM"}, {"smiles": "COC(=O)C1=C(OC(=O)/C(=C/c2ccccc2)c2ccc([N+](=O)[O-])cc2)C(C(=O)OC)[C@@]2(O)[C@@H](C(=O)OC)[C@H](C)C[C@@H]1[C@@H]2C(=O)OC", "note": "(some centres undefined)", "TGI": "> 100 µM"}, {"smiles": "CCOC(=O)C1=C(C#N)S(=O)(=O)c2c(oc(C)c2C)N1", "TGI": "> 100 µM"}, {"smiles": "O=C1C(Cl)=C(Cl)C(Cl)(Cl)C(Cl)C1(Cl)Cl", "note": "(centres undefined)", "TGI": "43.5 µM"}, {"smiles": "CCc1cccc(C(C)CC)c1NC(=O)CC1C(=O)Nc2ccccc2S1(=O)=O", "note": "(centres undefined)", "TGI": "77.3 µM"}, {"smiles": "COc1cc(Nc2ncc3c(C)nc(-c4cccc(C(F)(F)F)c4)n3n2)cc(OC)c1OC", "GI50": "3.9 µM", "TGI": "7.9 µM"}, {"smiles": "Cc1ccc(O)c(-c2cc(-c3cccc(Br)c3)c(C#N)c(N)n2)c1", "TGI": "> 100 µM"}, {"smiles": "Cn1c([N+](=O)[O-])cnc1/C=C1\\Oc2ccc(Br)cc2C1=O", "GI50": "3.58 µM", "TGI": "15.2 µM"}, {"smiles": "COc1cc(/C=C/c2cc(/C=C/c3ccc(O)c(OC)c3)n(C(=O)Cc3ccccc3)n2)ccc1O", "GI50": "1.68 µM", "TGI": "10.1 µM"}, {"smiles": "CCOC(=O)[C@]12C3C=CC(C3)C1C(=O)C1OC12", "note": "(some centres undefined)", "TGI": "> 100 µM"}, {"smiles": "COc1cccc(-c2nnc3c(-c4ccccc4)nc4ccccc4n23)c1", "TGI": "> 100 µM"}, {"smiles": "C=CC(O)(CBr)CCC(Br)C(C)(C)Cl", "note": "(centres undefined)", "TGI": "> 10 µM"}, {"smiles": "CCCCCCCCCCCC(=O)N(CCCCCCCCCCC(=O)O)CC(O)C(O)C(OC1OC(CO)C(O)C(O)C1O)C(O)CO", "note": "(centres undefined)", "TGI": "> 100 µM"}, {"smiles": "Nc1cnc(Nc2cccc3ccccc23)o1", "TGI": "> 10 µM"}, {"smiles": "CN(c1ccc(C(=O)O)cc1)c1cc(O/N=[N+](\\[O-])N(C)C)c([N+](=O)[O-])cc1[N+](=O)[O-]", "GI50": "15.5 µM", "TGI": "29.4 µM"}, {"smiles": "CN(c1ccc(Cl)c(Cl)c1)c1cnc2cc(N)cc(N)c2n1", "GI50": "4.9 µM", "TGI": "16.2 µM"}, {"smiles": "CN(C)CCCNc1nc2ccccc2c2c(=O)c3cc(F)ccc3sc12", "GI50": "1.6 µM", "TGI": "2.99 µM"}, {"smiles": "CN(C)/C=N/S(=O)(=O)c1nn2c(C=O)c(-c3ccccc3)nc2s1", "TGI": "> 80.3 µM"}, {"smiles": "CCCOc1ccc2sc(NC(=O)c3cc([N+](=O)[O-])cc([N+](=O)[O-])c3)nc2c1", "TGI": "> 100 µM"}, {"smiles": "CSc1ccc(C2=NN(c3ccccc3)C(c3ccc(-c4cc(Cl)c(Cl)cc4Cl)o3)C2)cc1", "note": "(centres undefined)", "GI50": "> 100 µM", "TGI": "> 100 µM"}, {"smiles": "CC1(C)OC(C(C)(C)O)C(C(C)(C)O)O1", "note": "(centres undefined)", "TGI": "> 100 µM"}, {"smiles": "COc1ccc(-c2cc(C(=O)N3N=C(c4ccc(N)cc4)CC3c3ccc(Cl)cc3)c3ccccc3n2)cc1", "note": "(centres undefined)", "GI50": "6 µM", "TGI": "> 100 µM"}, {"smiles": "COc1cc2c3c(c1Oc1nnnn1-c1ccccc1)-c1c(ccc4c1OCO4)C[C@H]3N(C)CC2", "TGI": "> 100 µM"}, {"smiles": "CCOC(=O)c1c(Sc2ccc([N+](=O)[O-])cc2[N+](=O)[O-])nc2c3ccccc3ccn12", "TGI": "> 100 µM"}, {"smiles": "CCCCCCCCCCCCCCCCOCC(Cl)CP(=O)(O)OP(=O)(O)OCC1OC(n2cnc3c(N)ncnc32)C(O)C1O", "note": "(centres undefined)", "TGI": "> 100 µM"}, {"smiles": "COc1cc(C2CC(c3ccc(SC)cc3)=NN2C(C)=O)cc(OC)c1OC", "note": "(centres undefined)", "GI50": "30.8 µM", "TGI": "> 100 µM"}, {"smiles": "CCOC(=O)/C=C1/Oc2ccccc2C1(C)O", "note": "(centres undefined)", "TGI": "> 100 µM"}, {"smiles": "OCc1cc2c([nH]c3ccccc32)c(C(O)CO)n1", "note": "(centres undefined)", "TGI": "> 100 µM"}, {"smiles": "NCCCNC(=O)c1csc(NC(=O)c2csc(NC(=O)CCCN)n2)n1", "TGI": "> 100 µM"}, {"smiles": "Cc1ccc(NC(=O)c2ccc(CN3CC[C@H](N(C)C)C3)c(C(F)(F)F)c2)cc1Nc1nccc(-c2cncnc2)n1", "GI50": "10.3 µM and > 10 µM", "TGI": "27.8 µM and > 10 µM"}, {"smiles": "CCOC(=O)NC(=O)c1cn(CCN2CCN(C(=O)CCCCCCCCCCNc3ncnc4c3ncn4C3OC(CO)C(O)C3O)CC2)c(=O)[nH]c1=O", "note": "(centres undefined)", "TGI": "> 100 µM"}, {"smiles": "CO[C@@H](C)Cn1c(=O)n(C)c2cnc3ccc(-c4cncc(C(C)(C)O)c4)cc3c21", "GI50": "0.112 µM and 0.0748 µM", "TGI": "1.61 µM and 2.08 µM"}]}]}
